Measurements from the supplement of paper PMC12067230.
This is a noisy data set.

Experiment: amyloid nucleation score relative to library mode (yeast Sup35 reporter selection) (log enrichment difference); higher = more amyloid nucleation; sequences are the first 22 residues of the Bri2 peptide extended by up to 12 random residues
Conditions: random library (experiment): 1;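 active = nucleation score significantly above 0 at FDR 0.05; inactive = not significantly above 0 or absent from output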
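Also: [psi-pin-] Saccharomyces cerevisiae expressing SupN fusions, induced by 100 µM Cu2SO4, selected 7 d at 30 °C without adenine and uracil, scored by deep sequencing of output versus input.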

Q: Which amyloid nucleation score does the source give for EASNCFAIRHFENKFAVETLICMNVGAGRVTGRK here?
A: Its amyloid nucleation score is “inactive”.

Q: Which amyloid nucleation score does the source give for EASNCFAIRHFENKFAVETLICMNYGCVR here?
A: The amyloid nucleation score was “inactive”.

Q: With EASNCFAIRHFENKFAVETLICMPDAS as the sequence, how does the amyloid nucleation score read?
A: Its amyloid nucleation score is “inactive”.

Q: With EASNCFAIRHFENKFAVETLICMPDKMVCCVVSS as the sequence, how does the amyloid nucleation score read?
A: The amyloid nucleation score was “inactive”.

Q: With EASNCFAIRHFENKFAVETLICMPIRVRLMVLVL as the sequence, how does the amyloid nucleation score read?
A: The amyloid nucleation score was “inactive”.

Q: For EASNCFAIRHFENKFAVETLICMPKAGRFLEGAR, which amyloid nucleation score is on record?
A: Its amyloid nucleation score is “inactive”.

Q: For EASNCFAIRHFENKFAVETLICMPLKVYTLLLKV, which amyloid nucleation score is on record?
A: Its amyloid nucleation score is “inactive”.

Q: With EASNCFAIRHFENKFAVETLICMPPICPYQTR as the sequence, how does the amyloid nucleation score read?
A: The amyloid nucleation score was 5.94.

Q: For EASNCFAIRHFENKFAVETLICMPSVRRWIEVVR, which amyloid nucleation score is on record?
A: Its amyloid nucleation score is 0.49.

Q: For EASNCFAIRHFENKFAVETLICMQARWPV, which amyloid nucleation score is on record?
A: The amyloid nucleation score was -0.302.

Q: With EASNCFAIRHFENKFAVETLICMQCAYQYGGSGA as the sequence, how does the amyloid nucleation score read?
A: The amyloid nucleation score was 7.56.

Q: For EASNCFAIRHFENKFAVETLICMQDGWYFPFFLR, which amyloid nucleation score is on record?
A: The amyloid nucleation score was “inactive”.

Q: For EASNCFAIRHFENKFAVETLICMR, which amyloid nucleation score is on record?
A: Its amyloid nucleation score is “inactive”.

Q: For EASNCFAIRHFENKFAVETLICMRCQSQFVACLA, which amyloid nucleation score is on record?
A: Its amyloid nucleation score is 4.29.

Q: For EASNCFAIRHFENKFAVETLICMRCVLFPCVQLM, which amyloid nucleation score is on record?
A: The amyloid nucleation score was “inactive”.

Q: Which amyloid nucleation score does the source give for EASNCFAIRHFENKFAVETLICMRFHATGRRGWC here?
A: The amyloid nucleation score was 5.68.

Q: With EASNCFAIRHFENKFAVETLICMRFWDC as the sequence, how does the amyloid nucleation score read?
A: Its amyloid nucleation score is “inactive”.

Q: With EASNCFAIRHFENKFAVETLICMRHCKVQRALRQ as the sequence, how does the amyloid nucleation score read?
A: The amyloid nucleation score was “inactive”.

Q: For EASNCFAIRHFENKFAVETLICMRIKCQIMRARM, which amyloid nucleation score is on record?
A: The amyloid nucleation score was “inactive”.

Q: Which amyloid nucleation score does the source give for EASNCFAIRHFENKFAVETLICMRLKLQVWEAAA here?
A: The amyloid nucleation score was -0.405.

Q: Which amyloid nucleation score does the source give for EASNCFAIRHFENKFAVETLICMRMYTDMCVGTA here?
A: Its amyloid nucleation score is “inactive”.

Q: Which amyloid nucleation score does the source give for EASNCFAIRHFENKFAVETLICMRNHDCGGWWQS here?
A: The amyloid nucleation score was “inactive”.

Q: Which amyloid nucleation score does the source give for EASNCFAIRHFENKFAVETLICMRPRGGPHLWSG here?
A: The amyloid nucleation score was “inactive”.

Q: With EASNCFAIRHFENKFAVETLICMRRDDNIEEQCV as the sequence, how does the amyloid nucleation score read?
A: The amyloid nucleation score was -0.235.

Q: With EASNCFAIRHFENKFAVETLICMRRQTRIDVASM as the sequence, how does the amyloid nucleation score read?
A: The amyloid nucleation score was “inactive”.

Q: For EASNCFAIRHFENKFAVETLICMRRRRTCNWLTT, which amyloid nucleation score is on record?
A: The amyloid nucleation score was -0.0385.

Q: Which amyloid nucleation score does the source give for EASNCFAIRHFENKFAVETLICMRSYGRRSYVTD here?
A: Its amyloid nucleation score is 3.54.

Q: With EASNCFAIRHFENKFAVETLICMRVRWPRWNGAG as the sequence, how does the amyloid nucleation score read?
A: The amyloid nucleation score was 1.52.

Q: For EASNCFAIRHFENKFAVETLICMRVYGRN, which amyloid nucleation score is on record?
A: Its amyloid nucleation score is 3.2.

Q: For EASNCFAIRHFENKFAVETLICMRYLLGCLLSVG, which amyloid nucleation score is on record?
A: The amyloid nucleation score was “inactive”.

Q: With EASNCFAIRHFENKFAVETLICMS as the sequence, how does the amyloid nucleation score read?
A: The amyloid nucleation score was “inactive”.

Q: With EASNCFAIRHFENKFAVETLICMSAVWRL as the sequence, how does the amyloid nucleation score read?
A: Its amyloid nucleation score is “inactive”.

Q: With EASNCFAIRHFENKFAVETLICMSDHGSLTGYCG as the sequence, how does the amyloid nucleation score read?
A: Its amyloid nucleation score is “inactive”.

Q: With EASNCFAIRHFENKFAVETLICMSEFRKPTMRSV as the sequence, how does the amyloid nucleation score read?
A: Its amyloid nucleation score is “inactive”.

Q: For EASNCFAIRHFENKFAVETLICMSEICSAMVNSR, which amyloid nucleation score is on record?
A: The amyloid nucleation score was “inactive”.

Q: For EASNCFAIRHFENKFAVETLICMSGNHAGTVC, which amyloid nucleation score is on record?
A: The amyloid nucleation score was “inactive”.

Q: Which amyloid nucleation score does the source give for EASNCFAIRHFENKFAVETLICMSGVYRFVDEHK here?
A: The amyloid nucleation score was “inactive”.

Q: With EASNCFAIRHFENKFAVETLICMSKRRCRGSEMV as the sequence, how does the amyloid nucleation score read?
A: Its amyloid nucleation score is “inactive”.

Q: With EASNCFAIRHFENKFAVETLICMSLCGRAGHGVV as the sequence, how does the amyloid nucleation score read?
A: Its amyloid nucleation score is 7.09.

Q: With EASNCFAIRHFENKFAVETLICMSLRKMPFSSAC as the sequence, how does the amyloid nucleation score read?
A: The amyloid nucleation score was “inactive”.

Q: For EASNCFAIRHFENKFAVETLICMSPLLEVMLLLL, which amyloid nucleation score is on record?
A: The amyloid nucleation score was 3.51.

Q: For EASNCFAIRHFENKFAVETLICMSQPVETSRLRH, which amyloid nucleation score is on record?
A: The amyloid nucleation score was “inactive”.

Q: Which amyloid nucleation score does the source give for EASNCFAIRHFENKFAVETLICMSRMHLYARQLL here?
A: Its amyloid nucleation score is “inactive”.

Q: For EASNCFAIRHFENKFAVETLICMSRRLKNSFTVA, which amyloid nucleation score is on record?
A: The amyloid nucleation score was “inactive”.

Same assay, conditions: random library (experiment): 2

Q: With EASNCFAIRHFENKFAVETLICMNVGVCIRIILY as the sequence, how does the amyloid nucleation score read?
A: The amyloid nucleation score was “inactive”.

Q: With EASNCFAIRHFENKFAVETLICMNVICTVRHRRK as the sequence, how does the amyloid nucleation score read?
A: Its amyloid nucleation score is 2.66.

Q: With EASNCFAIRHFENKFAVETLICMNYDTTRGYFSD as the sequence, how does the amyloid nucleation score read?
A: The amyloid nucleation score was 4.67.

Q: Which amyloid nucleation score does the source give for EASNCFAIRHFENKFAVETLICMPCINNTLVVLG here?
A: Its amyloid nucleation score is 4.89.

Q: Which amyloid nucleation score does the source give for EASNCFAIRHFENKFAVETLICMPFVGSGMADEC here?
A: Its amyloid nucleation score is 6.97.

Q: For EASNCFAIRHFENKFAVETLICMPGCLSIDRDKN, which amyloid nucleation score is on record?
A: Its amyloid nucleation score is 7.95.

Q: With EASNCFAIRHFENKFAVETLICMPLRYGSFSYSF as the sequence, how does the amyloid nucleation score read?
A: Its amyloid nucleation score is “inactive”.

Q: Which amyloid nucleation score does the source give for EASNCFAIRHFENKFAVETLICMPRKVSNKDID here?
A: Its amyloid nucleation score is “inactive”.

Q: Which amyloid nucleation score does the source give for EASNCFAIRHFENKFAVETLICMPSHLWCFKYGG here?
A: The amyloid nucleation score was 6.88.

Q: For EASNCFAIRHFENKFAVETLICMQF, which amyloid nucleation score is on record?
A: Its amyloid nucleation score is 6.44.

Q: With EASNCFAIRHFENKFAVETLICMQHPYTSDIGEV as the sequence, how does the amyloid nucleation score read?
A: Its amyloid nucleation score is “inactive”.

Q: Which amyloid nucleation score does the source give for EASNCFAIRHFENKFAVETLICMQVCQLREWRGE here?
A: The amyloid nucleation score was 3.51.

Q: Which amyloid nucleation score does the source give for EASNCFAIRHFENKFAVETLICMRDVNNRYDQSV here?
A: The amyloid nucleation score was 7.2.

Q: With EASNCFAIRHFENKFAVETLICMRFWFSWSSVLH as the sequence, how does the amyloid nucleation score read?
A: The amyloid nucleation score was “inactive”.

Q: Which amyloid nucleation score does the source give for EASNCFAIRHFENKFAVETLICMRGCVAYKKL here?
A: Its amyloid nucleation score is “inactive”.

Q: Which amyloid nucleation score does the source give for EASNCFAIRHFENKFAVETLICMRIRWCPRMCLG here?
A: Its amyloid nucleation score is “inactive”.
